In the supplement of paper PMC3334620:
The full ranking holds about 33,000 sequences; the median of “E-score (-0.5 to 0.5)” is about -0.017, and the highest 2% start at about 0.3. This is one part of the list.

Biological target: T1, Sut1 (UniProt P53032)
T1 sequence: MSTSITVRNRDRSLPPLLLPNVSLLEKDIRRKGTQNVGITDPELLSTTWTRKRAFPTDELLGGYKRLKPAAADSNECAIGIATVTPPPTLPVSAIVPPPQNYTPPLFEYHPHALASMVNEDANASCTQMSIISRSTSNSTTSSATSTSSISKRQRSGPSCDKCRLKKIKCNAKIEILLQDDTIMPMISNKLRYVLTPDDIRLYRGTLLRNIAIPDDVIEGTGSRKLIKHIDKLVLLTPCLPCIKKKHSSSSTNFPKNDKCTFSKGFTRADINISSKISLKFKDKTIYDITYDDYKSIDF
Assay: PBM E-score (8-mer binding enrichment) (E-score (-0.5 to 0.5)); higher = stronger / more preferred TF binding; most listed sequences are background and not binding sites
Conditions: protein concentration: 200 nM; construct: GST-full length
Experimental: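 Universal 'all 10-mer' protein binding microarrays (Agilent AMADID 015681) probed with GST-tagged S. cerevisiae TFs (full-length or DBD) made by in vitro transcription/translation (PURExpress), about 100-200 nM. Bound TF was detected with fluorescent anti-GST. Each ungapped 8-mer (which stands for itself and its reverse complement) is scored by the PBM enrichment score (E-score), a modified Wilcoxon-Mann-Whitney statistic from -0.5 to +0.5, computed with the Universal PBM Analysis Suite. Scale: above 0.35 generally sequence-specific binding.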

Sequence | PBM E-score
AGCGCTAG | -0.126
CTACCTCA | -0.036
CAGTAGGA | -0.329
CACCGGTC | -0.223
AGGGTTGA | -0.17
AAATCCTT | -0.0419
TACCGGCA | -0.0381
AACAAAAC | 0.241
ACCGACTG | -0.0196
ATAACAGA | 0.137
GCCGTGGA | -0.108
AGAACAAC | 0.179
CGACACTA | -0.00571
CATTTATA | 0.185
CTGGTTCA | -0.0784
AAGCCCTT | -0.245
AGGGGACG | -0.235
CATACCCA | -0.168
AATAAGTA | 0.25
AGTCCAAC | -0.0182
GGGGTTCA | 0.142
ATCTTTCA | 0.123
AGTCTTGC | -0.083
AGATTTGA | 0.0395
GCGCCCTA | -0.174

Sequence | PBM E-score
AAAAAGTG | 0.149
ACAAGCAC | -0.0443
GTGTACGA | -0.0704
ATAGTGAT | 0.0941
CCTGAAAA | 0.0275
GCCCAGAC | -0.38
CCGGTCGC | -0.072
ACTCTTAC | 0.203
CGGTCCGA | 0.264
AAGTGTAG | 0.101
AATAGGAG | -0.101
GACGCAGC | -0.199
TAGAAAGA | 0.0934
ACTAGGAG | -0.183
AGAAGCGC | 0.169
AATTGAAG | 0.115
CCAACTAC | 0.0889
TATTAATA | 0.167
CCATCGAG | -0.0246
CCGCTCAG | -0.223
ACGGACAC | 0.0824
CTCCTCGA | -0.14
CTTCGCGC | 0.0638
CAACACGG | -0.0337
AAGGGACT | -0.0504

Sequence | PBM E-score
CAGCCTAA | -0.189
GACACAGA | 0.11
AAGATTCA | 0.137
AAGACTAT | -0.0585
CCACGCCG | -0.166
AATGGTTA | 0.0529
GTCTCCAC | -0.31
AAGGCAGA | -0.0787
CTCTGGTC | -0.00832
CGATCCTC | -0.124
TCCATAAA | 0.0101
CCCTATAA | -0.0777
ACGTACTC | 0.117
AGATAATC | 0.166
CAGCGATA | -0.00603
GATCCAGA | 0.0236
CTGGACTA | -0.0898
CAGGTTCA | -0.241
GCGATCTA | -0.0775
CGTGTGAA | -0.0949
CCAAGGAG | -0.0556
ATCGAGAC | -0.0345
ATCGTGCA | -0.0757
AGCCATAT | -0.0473
GTTCATAA | 0.0125

Sequence | PBM E-score
AATCTACC | 0.121
GTCTGTTA | 0.00506
GACACCTA | -0.0336
CAGCAGTC | -0.12
CCATATAC | 0.0631
ATTGATAG | 0.188
AGGGCGGC | -0.165
ACACTTCT | -0.154
CTATGAAA | 0.0309
ATATAACA | 0.309
ACTGTCCG | 0.236
TGCGTACA | -0.15
CGCTGAGA | -0.128
TACAACAA | 0.286
GCCAGAAA | 0.195
AACCTTAC | 0.169
CTGTGGTA | -0.0857
ACTTTGGA | 0.194
CTGGGAAC | -0.091
GCATCCAC | -0.107
GGTTTAAC | 0.142
ATGCGTTG | 0.00619
ACTCTCTC | -0.136
GACTTAAA | 0.0559
ACTGTTTG | -0.0205

Sequence | PBM E-score
AGTATACA | 0.106
CAGAGCAG | -0.106
ACAAGAAT | 0.167
AATTGTAC | 0.146
ACGGCCCG | -0.0453
GAGTGCGA | 0.0338
CAACATAC | 0.131
ACTTCACA | 0.0747
CCCAACGC | -0.103
CTTAAGCC | -0.0749
ACAAGCGC | -0.0824
CTGCCACC | -0.297
ACCGAATC | 0.0139
GCATGTCC | -0.0294
ACGCATCT | 0.0685
CAGTCGCA | -0.206
CGGCTCAG | -0.117
CATGATAA | 0.217
TGTAGACA | 0.0884
ATCGTGTA | 0.00282
CTCGGAAC | 0.182
ACGCATAG | 0.00972
CTGTTCTA | 0.0446
CGGGGCCA | -0.0153
CACACCTA | -0.0151

Sequence | PBM E-score
ACGCATAT | 0.0168
CAATTATG | 0.0932
ACTGGCAT | -0.156
TATTACGA | 0.223
CCTCGTTC | -0.159
ATCAAACA | 0.0922
AATCCCAA | 0.11
ATATTGAT | 0.258
TTTCGAAA | 0.211
AGGTACTG | -0.0919
GGGACCAC | -0.0986
AGCCGATG | -0.0167
AAATTAAC | 0.236
ACGGAGAT | 0.435
ATTAGACA | 0.134
AACTATTA | 0.177
CTGGTCCC | -0.413
CCAACGAG | -0.267
ACTTAATG | 0.16
GTCGCTAA | 0.0131
ATATTATG | 0.362
ATATGCAA | 0.00072
CATCCTCG | -0.188
AGCGTTCC | -0.0982
CTATTGAG | -0.0153

Sequence | PBM E-score
GATTAATC | 0.177
CTACTCTA | 0.0277
ATTTGGTA | 0.142
GATCTGAC | -0.136
CGATTAAA | 0.237
CCCGGGTC | -0.0481
AGCGCGGC | -0.252
CGGGTAAA | 0.165
AAGAAATG | 0.144
CCTCACCA | -0.122
AGGGCTCG | -0.223
ACCGAGGG | -0.284
ATTTTTGA | 0.235
AAGTGGTA | -0.0726
ACCACGGG | -0.157
AATTTTAC | 0.27
CCAAAAAG | 0.134
GTGTTATA | 0.173
CCCAAGGC | -0.0767
GGAGGCTA | -0.266
GTTGGGTA | -0.0741
ATAATCGC | 0.0269
